Source: the antibiotic and cytotoxicity screens of Wong et al. (2023)
Some of the results follow.

test system: HepG2; assay: cytotoxicity call (relative viability < 0.9); details: 10 µM

| SMILES | cytotoxicity call |
| --- | --- |
| O=C1CCCNc2ccc(Cl)cc21 | inactive |
| C[C@@H]1CCCCO[C@H](CN(C)CC2CCCCC2)[C@H](C)CN([C@H](C)CO)C(=O)c2cc(NC(=O)Nc3ccc(C(F)(F)F)cc3)ccc2O1 | active |
| C[C@H]1CN([C@@H](C)CO)C(=O)CCCn2cc(nn2)CO[C@H]1CN(C)C(=O)c1cc(-c2ccccc2)on1 | inactive |
| C[C@@H]1CN([C@H](C)CO)C(=O)Cc2cc(NS(=O)(=O)c3ccccc3)ccc2O[C@@H]1CN(C)Cc1ccc(Oc2ccccc2)cc1 | active |

test system: S. aureus RN4220; assay: growth inhibition call (relative growth <= 0.2); details: 50 µM

| SMILES | growth inhibition call |
| --- | --- |
| O=C(Cc1ccncc1)NCC[C@H]1CC[C@@H](NC(=O)C2CCOCC2)[C@@H](CO)O1 | inactive |
| C[C@@H]1CN([C@@H](C)CO)C(=O)c2cc(NC(=O)c3ccccc3)ccc2O[C@@H](C)CCCCO[C@H]1CN(C)C(=O)CCC(F)(F)F | inactive |
| C#CC1(O)CCC2C3CCc4cc(OC)ccc4C3CCC21C (centres undefined) | inactive |
| C[C@H](CO)N1C[C@H](C)[C@@H](CN(C)Cc2ccc(Cl)c(Cl)c2)Oc2ccc(NC(=O)C3CCCCC3)cc2CC1=O | inactive |
| CN(C)CC(=O)N[C@@H]1CC[C@H](CCn2cc(CN(C)C)nn2)O[C@@H]1CO | inactive |
| CCC1(C)CC(=O)NC1=O (centres undefined) | inactive |
| Nc1ccccc1CO | inactive |
| [N-]=[N+]=N[C@]1(CO)O[C@@H](n2ccc(N)nc2=O)[C@H](O)[C@@H]1O | inactive |
| C[C@H](CO)N1C[C@H](C)[C@H](CN(C)S(=O)(=O)c2cccc(F)c2)Oc2ncc(Br)cc2C1=O | inactive |
| C[C@H](CO)N1C[C@H](C)[C@H](CN(C)S(=O)(=O)c2cn(C)cn2)OCCCC[C@H](C)Oc2ccc(NS(=O)(=O)c3ccc(F)cc3)cc2C1=O | inactive |
| C[C@H](CO)N1C[C@H](C)[C@H](CN(C)C(=O)Nc2ccccc2)OCCCC[C@H](C)Oc2ccc(NC(=O)c3ccccc3)cc2C1=O | inactive |
| CC(C)NC(=O)N(C)C[C@H]1Oc2ccc(NS(=O)(=O)c3cn(C)cn3)cc2CC(=O)N([C@@H](C)CO)C[C@H]1C | inactive |
| C[C@H]1CN([C@@H](C)CO)C(=O)Cc2cc(NS(=O)(=O)c3ccc(Cl)cc3)ccc2O[C@@H]1CN(C)Cc1ccc(C(=O)Nc2ccccc2N)cc1 | inactive |
| CCOC(=O)c1cc2c(c(-c3cccc(Br)c3)n1)[C@@H](CCOC)N([S@](=O)C(C)(C)C)C2 | inactive |
| CCS(=O)(=O)Nc1ccc2c(c1)C(=O)N(C)C[C@@H](OC)[C@H](C)CN(Cc1ccccn1)[C@@H](C)CO2 | inactive |
| C[C@@H]1CN([C@H](C)CO)C(=O)c2cc(NC(=O)Nc3ccc(C(F)(F)F)cc3)ccc2O[C@@H](C)CCCCO[C@@H]1CN(C)Cc1ccncc1 | inactive |
| Cc1noc(C)c1S(=O)(=O)N(C)C[C@@H]1Oc2ccc(NS(=O)(=O)c3ccc(Cl)cc3)cc2CC(=O)N([C@H](C)CO)C[C@H]1C | inactive |
| C[C@@H]1CN([C@@H](C)CO)C(=O)CCCn2nncc2CO[C@H]1CN(C)C(=O)Nc1ccc2c(c1)OCO2 | inactive |
| CO[C@@H]1CN(C)C(=O)c2ccc(NC(=O)CC(F)(F)F)cc2OC[C@H](C)N(S(=O)(=O)c2cn(C)cn2)C[C@H]1C | inactive |
| C[C@@H]1CCCCO[C@@H](CN(C)CC2CC2)[C@@H](C)CN([C@H](C)CO)C(=O)c2cc(NC(=O)Cc3ccccc3)ccc2O1 | inactive |

| SMILES | growth inhibition call |
| --- | --- |
| C[C@@H]1CN([C@H](C)CO)C(=O)Cc2cc(NC(=O)NC3CCCCC3)ccc2O[C@@H]1CN(C)S(C)(=O)=O | inactive |
| C[C@@H]1CN([C@H](C)CO)C(=O)c2cc(NS(=O)(=O)c3ccc(F)cc3)ccc2O[C@@H](C)CCCCO[C@H]1CN(C)Cc1ccc2c(c1)OCO2 | inactive |
| C[C@@H]1CN([C@@H](C)CO)C(=O)Cc2cc(NC(=O)Cn3cnnn3)ccc2O[C@@H]1CN(C)C(=O)Nc1ccc(C(F)(F)F)cc1 | inactive |
| C[C@@H]1CCCCO[C@H](CN(C)S(=O)(=O)c2cccs2)[C@@H](C)CN([C@H](C)CO)C(=O)c2cc(NS(=O)(=O)c3cn(C)cn3)ccc2O1 | inactive |
| COc1oc(C(=O)NC2CCCCC2)c(-c2ccc(Cl)cc2)c1S(=O)(=O)c1ccc2c(c1)OCCO2 | inactive |
| Cc1noc(C)c1NC(=O)Nc1ccc2c(c1)CC(=O)N([C@H](C)CO)C[C@H](C)[C@@H](CN(C)C(=O)Nc1ccc(C(F)(F)F)cc1)O2 | inactive |
| C[C@H](CO)N1C[C@H](C)[C@@H](CN(C)S(=O)(=O)c2ccc(F)cc2)Oc2ccc(NS(=O)(=O)c3cn(C)cn3)cc2C1=O | inactive |
| CC(C)NC(=O)Nc1ccc2c(c1)CC(=O)N([C@@H](C)CO)C[C@@H](C)[C@H](CN(C)C(=O)Nc1ccc3c(c1)OCO3)O2 | inactive |
| C[C@@H]1CCCCO[C@H](CN(C)S(=O)(=O)c2ccccc2)[C@@H](C)CN([C@@H](C)CO)C(=O)c2cc(NC(=O)Nc3ccccc3)ccc2O1 | inactive |
| Cc1noc(C)c1NC(=O)Nc1cccc2c1O[C@H](CN(C)Cc1ccc(C(F)(F)F)cc1)[C@@H](C)CN([C@@H](C)CO)C2=O | inactive |
| CC(C=CC1=C(C)CCCC1(C)C)=CC=CC(C)=CC(=O)O | inactive |
| C=CCN1C(=O)[C@]2(O[C@H](CCO)[C@@H]([Si](C)(C)c3ccc(OC)cc3)[C@@H]2C)c2cc(N3C(=O)c4cccc5cccc3c45)ccc21 | inactive |
| COc1ccc(NC(=O)Nc2ccc3c(c2)C(=O)N([C@H](C)CO)C[C@H](C)[C@H](CN(C)S(=O)(=O)c2ccccc2)OCCCC[C@H](C)O3)cc1 | inactive |
| C[C@H](CO)N1C[C@H](C)[C@H](CN(C)S(=O)(=O)c2cccc(F)c2)Oc2ncc(C#CC3(O)CCCC3)cc2C1=O | inactive |
| CC(C)NC(=O)N(C)C[C@H]1OCCCC[C@H](C)Oc2ccc(NC(=O)Nc3cccc4ccccc34)cc2C(=O)N([C@H](C)CO)C[C@@H]1C | inactive |
| Cc1cc(C(=O)Nc2cccc3c2O[C@H](CN(C)S(=O)(=O)c2c(C)noc2C)[C@H](C)CN([C@H](C)CO)C3=O)n(C)n1 | inactive |
| O=C1CCCNc2ccc(Cl)cc21 | inactive |
| C[C@@H]1CCCCO[C@H](CN(C)CC2CCCCC2)[C@H](C)CN([C@H](C)CO)C(=O)c2cc(NC(=O)Nc3ccc(C(F)(F)F)cc3)ccc2O1 | inactive |
| C[C@H]1CN([C@@H](C)CO)C(=O)CCCn2cc(nn2)CO[C@H]1CN(C)C(=O)c1cc(-c2ccccc2)on1 | inactive |
| C[C@@H]1CN([C@H](C)CO)C(=O)Cc2cc(NS(=O)(=O)c3ccccc3)ccc2O[C@@H]1CN(C)Cc1ccc(Oc2ccccc2)cc1 | inactive |
